The campaign covered roughly 48,000 compounds. About 120 (0.25%) were called active. Another 4% or so got no clear call; they are omitted. The call rests on the fitted dose curve; in most records, active means well fitted activation curve with a large enough effect; inconclusive means small, poorly fitted or top-dose-only effect, or another doubt; inactive means no such curve, though single readings can be large or run the other way. This is one part of the list.
assay: Primary qHTS for Identification of Small Molecule Activators of Huntingtin-Antisense Promoter Activity; conditions: HEK293 HTT-AS promoter firefly luciferase reporter (activity 0% = vehicle and -100% = no light), 24 h; series mostly up to 57.5 µM; activity change, positive = activation: at the top concentration; further: nearly all actives have a fitted effect of over 55% in size
Outline: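 Luminescence was read after Dual-Glo reagent and a 10 min room-temperature incubation. Values were normalized to vehicle (0% activity) and zero RLU (-100% activity). Reporter HEK293 cells had been exposed to compounds (up to 57.5 uM final) for 24 h.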

Activity change, positive = activation, inactive:
Cc1oc2c(c1C(=O)Nc1cccc(Br)c1)C1=NCCN1C=N2 -16.8%, COc1cc(NC(=O)c2c(-c3ccc(C)cc3)nnc3ccccc23)cc(OC)c1OC 15.3%, O=C(Cn1nc(-c2ccccc2)ccc1=O)NCc1ccc(F)cc1Cl -4.07%, COc1ccccc1Nc1nn2c(=O)c3ccc(C(=O)N4CCC(C)CC4)cc3nc2s1 -44.6%, O=C(c1nc(-c2ccc(Cl)cc2)n2c1CCCCC2)N1CCN(c2ccccc2F)CC1 -20.7%, CC(=O)c1ccc(N2C(=O)N(Cc3cccc(C(F)(F)F)c3)c3ccccc3S2(=O)=O)cc1 -40.4%, Cc1ccc(CS(=O)(=O)c2cn(CC(=O)N(C)c3ccccc3)c3ccccc23)cc1 -39.6%, CC1=C(C(=O)OC2CCCC2)C(c2ccc(F)cc2F)CC(=O)N1 (stereo unspecified) -20.7%, CCOc1cc(C(=O)Nc2ccc3oc(-c4ccc(F)cc4Cl)nc3c2)cc(OCC)c1OCC 1.07%, COc1ccc(N(Cc2cccs2)C(=O)c2ccccc2C)cc1 -41.7%, Cc1ccc(NC(=O)c2cc(C)nn2-c2ccccc2)cc1 -2.29%, COc1ccc(C)cc1NCc1nnc2n1CCCCC2 -13.7%, O=C(CCCCn1c(=O)c2ccccc2n(Cc2ccc(Cl)cc2)c1=O)NCc1ccccc1Cl -54.4%, Cc1cc(OC(C)C(=O)N(Cc2ccco2)Cc2ccccc2F)cc(C)c1Cl (stereo unspecified) -35.7%, Cc1ccc(CCNC(=O)C2CCN(c3nnc(C)c4c(C)n(-c5ccccc5)nc34)CC2)cc1 -12.5%, COc1ccc(-c2cc(C(=O)Oc3cccc(C)c3)c3ccccc3n2)cc1 11.2%, COc1ccc(NC(=O)C2CCCN(C(=O)c3cnn(-c4ccc(F)cc4)c3-n3cccc3)C2)cc1 (stereo unspecified) -10.6%, COc1ccc(NC(=O)CSc2nc3ncccc3[nH]2)c(OC)c1 -10.9%, Cn1c(=O)cc(OCC(=O)N2CCN(c3ccccc3)CC2)c2ccccc21 -3.9%, Cc1ccc(NC(=O)CSCc2cnn(-c3ccccc3)c2-n2cccc2)c(C)c1 -39.6%, CCOc1cccc2sc(N(Cc3cccnc3)C(=O)C3CCCCC3)nc12 -21.3%, Cc1ccc(NC(=O)CSc2nc3ccccc3c3nc(CCn4cncc4C)nn23)cc1F -16.6%, CCc1ccccc1NC(=O)c1ccc(F)c(S(=O)(=O)NC2CCCCCC2)c1 -18.5%, Cc1ccc(C)c(N2CCN(CCCNC(=O)C3COc4ccccc4C3)CC2)c1 (stereo unspecified) -29%, CN1CCN(C(c2ccccc2Cl)c2sc3nc(-c4ccco4)nn3c2O)CC1 (stereo unspecified) -10.6%, CCC(=O)N1CCc2cc(Br)cc(S(=O)(=O)N3CCN(c4ccc(C(C)=O)cc4)CC3)c21 -3.87%, CC1CCN(c2ccc(NC(=O)c3cccc(Cl)c3)cc2C(=O)O)CC1 6.32%, CCCS(=O)(=O)c1ncc(Cl)c(C(=O)N2CCN(c3ccc(OC)cc3)CC2)n1 -94.7%, CN(C)Cc1cccc(N=C(c2ccccc2)c2c(O)[nH]c3cc(C(=O)N(C)C)ccc23)c1 -23.5%, Cc1ccc2ncc(C(=O)NCc3ccccc3Cl)c(=O)n2c1 7.79%, CC(=O)Nc1ccccc1-c1nc2ccccc2n(CC(=O)c2ccc(C)c(C)c2)c1=O -13.3%, CCC(CC)C(=O)Nc1ccc(OCc2cc(=O)n3ccsc3n2)cc1 12%, Cc1nc(N2CCCC2)c2c(C(=O)Nc3ccc(C)c(Cl)c3)c(C)oc2n1 1.32%, CCOc1ccccc1C1N=C(N)Nc2nc3ccccc3n21 (stereo unspecified) -13.3%, CCOC(=O)c1c(S(=O)(=O)N2CCC(C(=O)N3CCN(c4cccc(C)c4C)CC3)CC2)c(C)n(C)c1C -13.7%, CCC(CC)C(=O)Nc1cc(-c2cn3cccnc3n2)ccc1OC -15.1%, Cc1ccccc1-c1nnc(CN2CCN(c3cc(Cl)ccc3C)CC2)o1 -8.74%, COC(=O)c1c(C)oc2ccc(N(C(=O)c3ccncc3)S(=O)(=O)c3cc(C)c(C)cc3C)cc12 -59.8%, COc1ccc(C(CC(=O)Nc2ccc(C)cn2)N2Cc3ccccc3C2=O)cc1OC (stereo unspecified) -22.6%, CCOC(=O)N1CCC(NC(=O)c2ccc3c(c2)N(Cc2cccc(C)c2)C(=O)c2ccccc2S3(=O)=O)CC1 -34%, COc1ccc(-n2nc(C(=O)NCCc3ccc(Cl)cc3)c3c4ccccc4n(C)c3c2=O)cc1Cl -3.31%, O=C(Cn1c(=O)n(Cc2ccco2)c(=O)c2ccc(C(=O)NC3CCCC3)cc21)Nc1ccc(F)cc1 -20.9%, Cc1cc(C)n(CC(=O)Nc2ccc(F)c(F)c2)c(=O)c1C#N -8.57%, N#C/C(=C\c1ccc(-c2ccccc2C(=O)O)o1)c1nc2ccccc2[nH]1 -53.7%, CC(C)C[C@@H](N)[C@H](O)C(=O)N[C@H](C(=O)N[C@H](C(=O)N[C@@H](CC(=O)O)C(=O)O)C(C)C)C(C)C -11%, Cc1cc(-c2ccc(C)c(S(=O)(=O)N3CCCC(C)C3)c2)on1 (stereo unspecified) -30.8%, O=C(Cn1nc2c(cc1=O)CCCC2)Nc1ccc(F)cc1F -0.746%, COc1ccc(CCNC(=O)c2c(O)nc3cc(C)ccn3c2=O)cc1OC -11.1%, O=S(=O)(Nc1cccc(Cl)c1)c1ccc2[nH]c3c(c2c1)CCCCCC3 -37.3%, CCc1ccc(CNC(=O)c2ccc(CSc3nc4ccncc4n3Cc3ccc(OC)cc3)cc2)cc1 -26.2%, COc1ccc(N2CCN(C(=O)Cc3coc4ccc(C)cc34)CC2)cc1 0.641%, COc1ccc(C)cc1NC(=O)C(=O)NCCc1sc(-c2ccc(Cl)cc2)nc1C 2.94%, CCc1noc(-c2ccc(NC(C)c3ccccc3)c([N+](=O)[O-])c2)n1 (stereo unspecified) -15.9%, CCN(CC)C(=O)C1=C(C)Nc2nc3ccccc3n2C1c1ccc(Br)cc1 (stereo unspecified) -6.09%, CC(=O)c1cccc(NC(=O)CCS(=O)(=O)c2cc3c(cc2C)NC(=O)CO3)c1 -4.93%, CCOC(=O)c1c(NC(C)=O)c2c3c(sc2n1Cc1nc(-c2ccc(Cl)cc2)oc1C)CCCC3 1.23%, Cc1ccc2nc(/C(C#N)=C/c3cccc(Br)c3)[nH]c2c1 4.55%, O=C(Cc1csc2ccccc12)NCc1cccc(Br)c1 8.78%, CN(C)S(=O)(=O)n1cc(/C=C(\NC(=O)c2ccccc2F)C(=O)NCCCn2ccnc2)c2ccccc21 -4.85%, OC(c1cc(C(F)(F)F)nc2c(C(F)(F)F)cccc12)C1CCCCN1 (stereo unspecified) -16%, Cc1ccccc1CN1CCC(CNc2ncnc3onc(-c4ccc(Cl)cc4)c23)CC1 -16%

Source: PubChem BioAssay AID1508624 (National Center for Advancing Translational Sciences (NCATS), 2021)
